Assay results as given in paper PMC12040169 (PLOS Biology, 2025).
This is one part of the list.

tested on: T1, C. trachomatis L2/434/Bu expressing GFP (CTL2-GFP); design: species or system HeLa; C. trachomatis total inclusion area by high-content imaging, normalised to DMSO; settings: total inclusion area; 28.5 h, 10 µM; inhibitor
T1 construct: L2/434/Bu GFP intracellular growth in HeLa cells
Outline: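 Following bulk GFP and resorufin fluorescence reads, infected cells were fixed, Hoechst-stained and imaged on a high-content platform. Inclusion total area and number per well served as growth proxies; nuclei counts indicated host viability. MICs were derived as for the fluorescence assay.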

Compound | % of control remaining
Cc1ccc(C(=O)NC2CCCCCC2)cc1C [CBK083665] | 116.306
CCN1CCN(Cc2nc3c(c(=O)n(C)c(=O)n3C)n2Cc2c(F)cccc2Cl)CC1 [CBK269236] | 98.0178
O=C(CCn1c(-c2ccncc2)cc2cccnc21)NC1CCCCC1 [CBK282621] | 111.093
O=C(C1CCOCC1)N1CCCC[C@H]2CN(Cc3ccccc3)C[C@H]21 [CBK284839] | 102.849
Cc1ccc(C(C)(C)CC(C)NCc2ccc(Cl)cc2)o1 (stereo not shown) [CBK262873] | 96.9112
COCCC(=O)N[C@H]1CC[C@]2(C)CCC([C@H](C)C(=O)N3CCC(C)CC3)[C@H](O)[C@H]2[C@@H]1C (stereo partly shown) [CBK289451] | 123.288
CS(=O)(=O)Nc1cc(-c2noc([C@@H]3CCCN3Cc3ccc(S(C)(=O)=O)cc3)n2)ccn1 [CBK288890] | 113.19
CC(C)NC(=O)Cn1ccc2ccnc(-c3cccs3)c21 [CBK284732] | 89.5655
Cc1ncc(CN(C)C(C)C(=O)Nc2ccccc2N2CCCC2=O)s1 (stereo not shown) [CBK298274] | 91.6564
O=C(CSc1nnc(Cc2cccs2)n1-c1ccccc1)Nc1ccc(F)c(Cl)c1 [CBK267589] | 93.2643
CCc1nnc(NS(=O)(=O)c2ccc(NC(=S)Nc3ccc(F)cc3)cc2)s1 [CBK050037] | 23.0064
COc1cc2cc3c(N)c(C(=O)N4CCCc5ccccc54)sc3nc2cc1OC [CBK117298] | 103.581
CCOC(=O)c1c(-c2ccccc2)oc2ccc(OCC(=O)NN)cc12 [CBK263826] | 120.858
CC(C)(CC(=O)O)CC(=O)Nc1ccc2c(c1)ncn2CCc1ccccc1 [CBK299768] | 114.019
c1ccc2c(c1)ccn2Cc1ccc(-c2nccnc2-c2nnn[nH]2)cc1 [CBK050821] | 105.45
COc1ccc(Cl)cc1S(=O)(=O)N1CCC(C(=O)NCc2cccnc2)CC1 [CBK269878] | 86.5106
CC(C)(C)OC(=O)NC(C)(C)C(=O)N1C[C@H](C(=O)N2CCC3(CC2)CN(S(C)(=O)=O)c2ccccc23)[C@@H](c2nc3ccccc3s2)C1 [CBK136737] | 96.5406
Cc1cnn(CC(=O)NC(Cc2ccsc2)c2nc(C)cs2)c1 (stereo not shown) [CBK285151] | 90.7729
CCNC(=O)C1(Cc2ccc(-c3ccncc3)cc2)CCN(C(=O)CC2CCCCC2)CC1 [CBK285785] | 105.692
Cn1nc(-c2ccc(F)cc2)cc1[C@H]1CN2CC[C@H]1C[C@@H]2CNC(=O)N1CCOCC1 [CBK289108] | 95.9115
Nc1ncc(-c2ccc(CN3CCOCC3)cc2)nc1-c1ccc(O)cc1 [CBK123798] | 72.7179
Cc1ccc(-n2ncc3c(=O)n(CC(=O)N4CCCCC4)cnc32)cc1 [CBK287532] | 126.239
COc1ccc2c(c1)CC(=O)NC21CCN(CCCCC(C)C)CC1 [CBK039839] | 96.9186
Cc1c(C(=O)CCN(C)C2CC=C(c3ccc(F)cc3)CC2)cnn1CCO (stereo not shown) [CBK023799] | 101.657
CCc1nc2c(C(=O)NCCNC(C)=O)cnn2c(CC)c1Cc1ccc(Cl)cc1 [CBK165730] | 84.5145
CCn1c2ccccc2c2cc(CN3CCN(S(=O)(=O)c4ccc(NC(C)=O)cc4)CC3)ccc21 [CBK264248] | 106.162

Compound | % of control remaining
Cc1ccc(-c2csc(NC(=O)c3ccc(S(=O)(=O)N4CCOCC4)cc3)n2)cc1 [CBK094024] | 111.398
CCNc1nc(-c2ccc(SCC)cc2)cn2ccnc12 [CBK066489] | 93.0768
O=C(COc1cccnc1)N1CCN(c2ccccc2)CC1 [CBK200210] | 80.0542
COc1ccc2[nH]cc(CCNC(=O)N3CCCC(C(=O)O)C3)c2c1 (stereo not shown) [CBK161351] | 77.4216
C#CCOc1ccc(/C=N/N=C(\N)c2nonc2N)cc1OC [CBK264765] | 84.4275
Cc1ccnc2c1C(=O)C1(CC2)CCN(C(=O)Nc2ccc(F)cc2F)CC1 [CBK059553T] | 99.8943
Oc1ccc(-c2cncc(Nc3cccc(Br)c3)n2)cc1 [CBK107803] | 91.9813
Cc1cc(NC(=O)CCC2CCCCC2)nc2c1c(=O)oc1ccccc12 [CBK291125] | 81.4058
CC(C)[C@H]1CN(Cc2cc(C#N)n(C)c2)C[C@@H]1NC(=O)C1CCC1 [CBK306832] | 46.2834
Cc1ccc(C2=NN(C(=O)CNc3cc(F)cc(F)c3)C(c3ccco3)C2)cc1 (stereo not shown) [CBK297922] | 93.1239
CN(C)CCN1CCN(c2cncc(-c3cccnc3)n2)CC1 [CBK065416] | 93.1593
CNS(=O)(=O)c1cccc2c1CCN(C(=O)NC1CCOC1)C2 (stereo not shown) [CBK306172] | 129.257
O=C(O)C1CCN(c2ncnc3scc(-c4ccccc4)c23)CC1 [CBK076784] | 103.791
O=c1scnn1Cc1nc(-c2ccsc2)no1 [CBK306438] | 51.2906
Clc1cccc(Cl)c1CN(Cc1ccccc1)c1ncnc2[nH]cnc12 [CBK266571] | 109.205
COc1ccc(C(NC(=O)C2CCN(C(=O)OC(C)C)CC2)c2ccccc2C)cn1 (stereo not shown) [CBK059704] | 94.9363
Brc1ccc2[nH]c3c(c2c1)CCNC31CCN(CCOc2ccccc2)C1 (stereo not shown) [CBK083578] | 46.7706
CC(C)(C)C(=O)N1CCC(n2nc(-c3cccs3)oc2=O)CC1 [CBK282423] | 101.744
CC(C)NC(=O)N1CCC[C@@H](O)[C@H](NC(=O)c2ccc(OCc3ccccc3)cc2)C1 [CBK289063] | 107.273
COc1ccc(-c2ccccc2)cc1NS(=O)(=O)c1ccc2c(c1)CCC(=O)N2 [CBK286368] | 108.051
C/C(=N/O)c1ccc(OCCCOc2ccc(/C(C)=N/O)cc2)cc1 [CBK262075] | 88.5286
Cc1csc(NC(=O)c2cccc(S(=O)(=O)NCC3CCCO3)c2)n1 (stereo not shown) [CBK305017] | 97.9698
COc1cc(NC(=O)N2CCCCC2CO)cc(OC)c1OC (stereo not shown) [CBK155986] | 87.6834
CCN(CC)C(=O)c1sc2ccccc2c1Cl [CBK067853] | 35.0872
CN(CC(=O)N1CCC(Cc2ccccc2)CC1)S(=O)(=O)c1ccc2ccccc2c1 [CBK266931] | 111.083
Cc1csc(NC(=O)CSc2nnc3[nH]c(=O)cc(C)n23)n1 [CBK294413] | 87.5341

Compound | % of control remaining
O=C(Cc1c[nH]cn1)N1CCCC2(CCN(C(=O)c3cc(F)c(F)cc3F)C2)C1 (stereo not shown) [CBK137072] | 73.9339
O=C1NC(=O)C(CCCCN2CCC[C@@H]2CN2CCCC2)N1 (stereo partly shown) [CBK149110] | 96.6676
CC(C)C(=O)Nc1ccc2c(-c3ccc4c(c3)CCO4)ccnc2n1 [CBK073672] | 123.086
O=C(O)CCNC1CC(=O)N(Cc2ccccc2)C1=O (stereo not shown) [CBK287246] | 85.0763
O=C(O)C1Cc2c([nH]c3ccccc23)C(c2cc(Br)ccc2O)N1 (stereo not shown) [CBK260946] | 102.346
O=C1COc2ccccc2C/C=C/CC2(CCN(C(=O)c3cnccn3)CC2)C(=O)NCCN1 [CBK291997] | 140.861
O=C(Cn1ccnc1)Nc1nc(-c2ccccc2F)cs1 [CBK281409] | 74.5556
Cc1ccc(C(=O)NC(C)c2nnc(SCC(=O)c3ccc(Br)cc3)n2C)cc1 (stereo not shown) [CBK266183] | 96.7666
CC(=O)Nc1ccc(NCc2cc(Cl)ccc2OCc2ccc(Cl)cc2Cl)cc1 [CBK078179] | 87.9391
CN1CCN(NC(=O)COc2ccc(Br)cc2Cl)CC1 [CBK268174] | 92.589
COC(=O)/C=C/c1cn(C2OC(CO)C(O)C2O)c(=O)[nH]c1=O (stereo not shown) [CBK201339] | 105.759
COc1ccc2c(c1)C1(CC(=O)N(CCOc3ccccc3)C1=O)C(=O)N2C (stereo not shown) [CBK075168] | 91.9042
CN1C(C)(C)CC(NC(=O)c2[nH]cnc2C(=O)O)CC1(C)C [CBK287102] | 84.7239
CCOc1ccc2ccccc2c1CNCCSc1nnnn1C [CBK270046C] | 98.4843
O=C(c1cc(-c2ccncc2)nc2ccc(Cl)cc12)N1CCN(Cc2ccc3c(c2)OCO3)CC1 [CBK267765] | 108.628
COc1ccc2c(c1)C1(CC(=O)N(Cc3ccccc3)C1=O)C(=O)N2CCn1cnc2c1c(=O)n(C)c(=O)n2C (stereo not shown) [CBK075478] | 91.4226
COc1ccc(-c2cc(C(=O)Nc3ccccn3)cnc2-c2ccccc2)cn1 [CBK037519] | 112.06
FC(F)(F)c1nnc2ccc(N3CCN(Cc4ccsc4)CC3)nn12 [CBK305930] | 87.1649
COCCNc1cccc(Cn2c(=O)n(C)c3c2c(=O)nc(OC)n3C)c1 [CBK022052] | 88.2804
Cc1cc2ccccc2n2c(=O)n(CC(=O)N3CCCCC3C)nc12 (stereo not shown) [CBK283882] | 88.7808
O=C(O)c1ccccc1S(=O)(=O)CC(=O)N1CCCCC1 [CBK287180] | 84.9958
Cc1ccc(C2CCCN2C(=O)Cn2cccc(C(=O)NCc3ccccc3)c2=O)cc1C (stereo not shown) [CBK286074] | 103.671
CC(C)(C)CC(=O)O/N=C(\N)c1ccccn1 [CBK265779] | 91.288
c1ccc2c(CCN3CCC(Oc4nccnc4OC4CCCCC4)CC3)c[nH]c2c1 [CBK082877T] | 83.617
